In PubChem BioAssay (NCATS):
This is one part of the list. Further columns of the screen follow, without active or inactive calls. Most of these compounds were active or inconclusive in the main read-out, so they are no random draw.

Experiment: qHTS Assay for Lipid Storage Modulators (AID 1519)
Conditions: Drosophila S3 cells, BODIPY lipid droplet/cell ratio, laser cytometry; measured here: cell count channel max response; cells loaded with oleic acid
In short: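 Cells seeded at 5,000 per well were treated with compounds over a concentration series and loaded with oleic acid (400 uM, as added). Lipid droplet fluorescence (488 nm excitation, 500-530 nm channel) was read by laser-scanning cytometry and normalized to 20 uM Triacsin C.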

Question: With O=C(Nc1ccccc1)N1CCCC2(CCN(C(=O)c3cnccn3)CC2)C1 as the compound, how does the max response read?
Answer: 23.3%

Question: For O=C(c1ccco1)N1CCC2(CC1)CN(c1cccc(-c3ccccc3)c1)C2, which max response is on record?
Answer: 2.45%

Question: For COc1cc2c(cc1OC)C(=O)OC2, which max response is on record?
Answer: 24.8%

Question: For COCCn1c(=O)c(-c2ccc(Cl)cc2)nc2cnc(Oc3ccccc3)nc21, which max response is on record?
Answer: 20.4%

Question: For Cc1nc(N=Nc2cc(S(=O)(=O)O)c3cc([N+](=O)[O-])cc(S(=O)(=O)O)c3c2)c(COP(=O)(O)O)c(C=O)c1O, which max response is on record?
Answer: 38.8%

Question: For C[N+]1(C)C2CCC1CC(OC(=O)C(O)c1ccccc1)C2 (stereo not drawn), which max response is on record?
Answer: 23.5%

Question: Which max response does the source give for COCCn1c(=O)c(-c2cccc(C#N)c2)nc2cnc(Nc3ccccc3)nc21 here?
Answer: 34.9%

Question: With O=S(=O)(c1ccccc1)N1CCC2(CCCN(c3ccccc3)C2)CC1 as the compound, how does the max response read?
Answer: 3.79%

Question: With Cc1nc2cnc(N(C)C)nc2n(C)c1=O as the compound, how does the max response read?
Answer: 28%

Question: With CC(=O)N1CCC2(CC1)CCN(c1cccc(-c3ccccc3)c1)CC2 as the compound, how does the max response read?
Answer: 2.68%

Question: With COc1ccc(-c2nc3cnc(Nc4ccccc4)nc3n(CCC#N)c2=O)cc1 as the compound, how does the max response read?
Answer: 83.3%

Question: Which max response does the source give for N#Cc1ccccc1-c1ccc2ncnc(NCc3cccnc3)c2c1 here?
Answer: 16.5%

Question: For CCCN(CCC)CCc1cccc2c1CC(=O)N2, which max response is on record?
Answer: 28%

Question: Which max response does the source give for CCNc1ncc2nc(-c3cc(F)cc(F)c3)c(=O)n(-c3ccccc3)c2n1 here?
Answer: 5.51%

Question: For FC(F)(F)c1ccccc1-c1nc(-n2ccnc2)c2ccccc2n1, which max response is on record?
Answer: 21.6%

Question: Which max response does the source give for CN1CCN(c2ncc3ncc(=O)n(CCc4ccccc4)c3n2)CC1 here?
Answer: 23.9%

Question: With CN(C)c1ncc2nc(-c3ccccc3)c(=O)n(CCC#N)c2n1 as the compound, how does the max response read?
Answer: 19.6%

Question: With CN(C)CCOC(c1ccccc1)c1ccccc1 (tested in a mixture with another compound) as the compound, how does the max response read?
Answer: 24.7%
